In PMC12136788:
The other results are listed elsewhere or left out.

B1: 75493018_75493138_318_CDS_ENSMUSG00000017776_ENSMUST00000017920|mouse|control|control (ssRNA)
RNA: GGGAGUUCUACAGUCCGACGAUCCACUGGAGGGCGCGGGCCGCUGCUGUUGAUGAUGUAGUGGGAGACGCGCGAGUUUUCGGAGACGCUAAGCACAUAGUCCCCGGGGCUGGUGCUCGAGUCCCGCACCAGGAACACCCCGUGCAACAGAGGAUUGAGCAUCA
B2: chr7:11082375:11082376:+_ENSG00000106443_ENST00000423760|hu_hu|FALSE|FALSE (ssRNA)
RNA: GGGAGUUCUACAGUCCGACGAUCUUUUUGGUCUUUCUUGGCAUCCUUGUAAGAGGAGGAUCCAGACAUCCAAGAUGGUAAUGUAGUUUACAGGUAUCACACAAUAAAAGAAGAUGCUGAUCAUGGUUCUUCUUACAAAUCCCACAACAGAGGAUUGAGCAUCA
B3: chr19:47223328:47223329:-_ENSG00000090372_ENST00000263280|hu_hu|motif|central (ssRNA)
RNA: GGGAGUUCUACAGUCCGACGAUCAGCAGGAGCUCAAGGGGAGAACCUGGCACCUUCUGGAGUCUUGGAAAAACUGAUCCCGGAAGACACCCGGCCCUGGCUGUGCUGCCCUCUGGAAAGCAGCUCUGAUACCAGGAGCGGCUGCAACAGAGGAUUGAGCAUCA
B4: chr1:39494447:39494448:+_ENSG00000168653_ENST00000372967|hu_mus|hu_hu_hu_mus_False|38_68 (ssRNA)
RNA: GGGAGUUCUACAGUCCGACGAUCGCACCGAGCGGCGUUCUUAUAGGGCUGUUCUGCGCUUAGGAACGUCAACCAUCGGUCCAGGCUGAUGCCCAGCCUUUUCUGGAUGUCAAGGAAAGGCAUGGCUCUGCAGUGCCCUUGUCACAACAGAGGAUUGAGCAUCA
B5: chr1:224585847:224585848:-_ENSG00000162923_ENST00000295024|hu_hu|FALSE|FALSE (ssRNA)
RNA: GGGAGUUCUACAGUCCGACGAUCUCCAAAACAUGAAUGAAUUGUAUAAAACCCUUGUGUAACACCUUGAUACUUUCUUACUAAAACUCUGUCUUGCAAGUCCCAUAAAUGAACUCCCUGAGUUGCUACAUUUAACAAAGCUAACAACAGAGGAUUGAGCAUCA
B6: 97543011_97543131_3568_3pUTR_ENSMUSG00000038437_ENSMUST00000044730|mouse|control|control (ssRNA)
RNA: GGGAGUUCUACAGUCCGACGAUCCAGGCUAGGAGCCUGUCCUCCCGACCCUCUGAAGCAGCCAGUGCAGUGAGGGGUGGGCCAGGUGAAGGGCUCCCUCCAGUCUCUCUCCUCCAUGUGCACCUGGAACGCCAGGCAUGCACUCAACAGAGGAUUGAGCAUCA
B7: 67432010_67432130_1493_CDS_ENSMUSG00000022048_ENSMUST00000022629|mouse|control|control (ssRNA)
RNA: GGGAGUUCUACAGUCCGACGAUCGAUGACCAAGUCAGCAUCAGAUCCCACCGAGAUGCGACCUUUCCGGGGGUAAAGGUUGAAGACUUUGGCUGCGUUGGUGCUGGUCACAGCCACAAACUGAUUCUCAUCCAUCUUCCCAGUCAACAGAGGAUUGAGCAUCA
B8: 112352971_112356265_2139_CDS_ENSG00000108055_ENST00000361804|human|control|control (ssRNA)
RNA: GGGAGUUCUACAGUCCGACGAUCUUCACCUAGUUCUUCUUCUGCUUUUCUAACAUCUUUUUGCAAUUCAAGUCGAGACUUCCUUGUGUCAUAAUAACCCCCAGUUAGAGCACCCCGAUGGCUGACUUGGUCACCUUCCAAAGUCAACAGAGGAUUGAGCAUCA
B9: chr4:115894766:115894767:+_ENSMUSG00000028698_ENSMUST00000030464|mus_hu|mus_mus_mus_hu_True|28_98 (ssRNA)
RNA: GGGAGUUCUACAGUCCGACGAUCUUCCACACGGAAAGUACUUGGGGGUUUUCCAACGGCCAGUACCAGUCCGGCCAAACUACCCGAACAGGGUCCUCCCCCUCUCUUCUCUCCUCCACAACAAAAUGCCCCCGAACUUUCAAGCAACAGAGGAUUGAGCAUCA
B10: chr7:151048522:151048523:+_ENSG00000013374_ENST00000566856|hu_mus|hu_hu_hu_mus_True|8_58 (ssRNA)
RNA: GGGAGUUCUACAGUCCGACGAUCCUGUUUCUUAUUUAUUACGAUCUUGAUGUAAUUUUCUUGAAAUCCGAAAGUUUCAGCUAUUUUACACCUCAGGUCUCUACCAGUGACAUGCAAGCGGGUCUCCAACAAGUUUUUCUUAUCCAACAGAGGAUUGAGCAUCA
B11: chr13:55314627:55314628:+_ENSMUSG00000021488_ENSMUST00000099490|mus_mus|motif|central (ssRNA)
RNA: GGGAGUUCUACAGUCCGACGAUCCUCAGAAAAAUUGGAUUGACCAUUACCGAAAGGGCUGUCCUUGUCUUCGGAGGCAUCGGAAUUCACCGGAUUAGAAAAGGACAGCAGACAAUUUCUUCUAGAUAAUUCACAAGUCCGAUCCAACAGAGGAUUGAGCAUCA
B12: 39978172_39979131_505_5pUTR_ENSG00000121892_ENST00000303538|human|control|control (ssRNA)
RNA: GGGAGUUCUACAGUCCGACGAUCGCUUGGGCUGCGCGGUGAAGUCCAUCCUGGGGGACAACUUUUGGUUCACAGUCCUCUACCGGCCUCUCCUCCUCAUGCGGGCGGAAGGUGCAUCGAGCGCCCGGGCCUCUGUCAGGUGGUCAACAGAGGAUUGAGCAUCA
B13: chr2:217001844:217001845:+_ENSG00000079246_ENST00000392132|hu_hu|hu_hu_hu_mus_False|28_58 (ssRNA)
RNA: GGGAGUUCUACAGUCCGACGAUCACCAACUUGAGGAUUAGAUCUUUUGUCAUAAGCAUAUCGGACGAUGGCGACCAUGUCUAAGUCAUCCAAAGCAUGAACGAGAGAGGAAAGUGCAACAGCUGCCGCCUCAUCAUCCUUUGCCAACAGAGGAUUGAGCAUCA
B14: chr2:65315752:65315753:-_ENSG00000138069_ENST00000409751|hu_mus|FALSE|FALSE (ssRNA)
RNA: GGGAGUUCUACAGUCCGACGAUCACCAGCUGUAGCUCCAGGACCCAUUCGCUUUUUAAUCUCAGCUGCCAUCGUCAUGAAAGACUGUUCUACAUUCGUUGCGUUCUUAGCACUGGUUUCCAAAAAUGGAAUUCCAAGGGAAUCCAACAGAGGAUUGAGCAUCA

Molecular target: T1, UNK ZnF1-3 (human, UniProt Q9C0B0 31-174)
T1 sequence: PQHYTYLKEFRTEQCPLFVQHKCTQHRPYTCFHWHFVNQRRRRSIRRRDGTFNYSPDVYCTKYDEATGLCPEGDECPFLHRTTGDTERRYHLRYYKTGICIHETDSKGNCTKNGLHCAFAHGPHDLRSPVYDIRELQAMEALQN
Test: nsRBNS (natural sequence RNA bind-n-seq); RBNS binding buffer (assumed for nsRBNS): 25 mM Tris pH 7.5, 150 mM KCl, 3 mM MgCl2, 0.01% Triton X-100, 500 ug/ml BSA, 20 U/ml SUPERase-In, 4 C; UNK is unkempt and MSI1 is Musashi-1; names of the RNAs are library labels; protein concentration not given here; high values mean tight binding

Binder | binding signal [enrichment R]
B1 | 0.961
B2 | 1.56
B3 | 0.897
B4 | 0.5
B5 | 1.07
B6 | 0.556
B7 | 1.12
B8 | 0.804
B9 | 1.33
B10 | 0.682
B11 | 0.904
B12 | 0.673
B13 | 1.64
B14 | 0.963
